These compounds were tested against human Cav2.2 (Homo sapiens, UniProt Q00975) (assay: In vitro assessment of calcium channel activity using FLIPR (Ca2+ influx in IMR32 cells)). Conditions: IMR32 cells endogenously expressing human Cav2.2; 60 minute pre-incubation; 2 μM nifedipine; depolarized with 80 mM KCl; average of at least two runs unless marked (*).
Format: cell-based
Work on N#Cc1cccc(CC(=O)N2CCN3C[C@H](Oc4cnc(C5CC5)cn4)C[C@H]3C2)c1 [Example 147, 3-{2-[(7R,8aS)-7-[(5-cyclopropylpyrazin-2-yl)oxy]hexahydropyrrolo[1,2-a]pyrazin-2(1H)-yl]-2-oxoethyl}benzonitrile] yielded an IC50 of 8.58 µM.
For N#Cc1ccc(CC(=O)N2CCN3C[C@H](Oc4cnc(C5CC5)cn4)C[C@H]3C2)cc1C(F)(F)F [Example 148, 4-{2-[(7R,8aS)-7-[(5-cyclopropylpyrazin-2-yl)oxy]hexahydropyrrolo[1,2-a]pyrazin-2(1H)-yl]-2-oxoethyl}-2-(trifluoromethyl)benzonitrile], the IC50 was 0.49 µM.
O=C(COc1ccc(OC(F)(F)F)cc1)N1CCN2C[C@H](Oc3cnc(C4CC4)cn3)C[C@H]2C1 [Example 149, 1-[(7R,8aS)-7-[(5-cyclopropylpyrazin-2-yl)oxy]hexahydropyrrolo[1,2-a]-pyrazin-2(1H)-yl]-2-[4-(trifluoromethoxy)phenoxy]ethanone] showed an IC50 of 1.2 µM.
Compound O=C(COc1cccc(Cl)c1)N1CCN2C[C@H](Oc3cnc(C4CC4)cn3)C[C@H]2C1 [Example 150, 2-(3-chlorophenoxy)-1-[(7R,8aS)-7-[(5-cyclopropylpyrazin-2-yl)oxy]-hexahydropyrrolo[1,2-a]pyrazin-2(1H)-yl]ethanone] has an IC50 of 1.05 µM.
Work on O=C(COc1ccc(F)cc1)N1CCN2C[C@H](Oc3cnc(C4CC4)cn3)C[C@H]2C1 [Example 151, 1-[(7R,8aS)-7-[(5-cyclopropylpyrazin-2-yl)oxy]hexahydropyrrolo[1,2-a]-pyrazin-2(1H)-yl]-2-(4-fluorophenoxy)ethanone] yielded an IC50 of 3.66 µM.
For C=C(C)c1cnc(O[C@@H]2C[C@H]3CN(C(=O)Cc4cccc(C(F)(F)F)c4)CCN3C2)cn1 [Example 152, 1-[(7R,8aS)-7-{[5-(prop-1-en-2-yl)pyrazin-2-yl]oxy}hexahydropyrrolo[1,2-a]pyrazin-2(1H)-yl]-2-[3-(trifluoromethyl)phenyl]ethanone], the IC50 was 1.24 µM.
Work on O=C(/C=C/c1cccc(C(F)(F)F)c1)N1CCN2C[C@H](Oc3cnc(C4CC4)cn3)C[C@H]2C1 [Example 153, (2E)-1-[(7R,8aS)-7-[(5-cyclopropylpyrazin-2-yl)oxy]hexahydropyrrolo[1,2-a]pyrazin-2(1H)-yl]-3-[3-(trifluoromethyl)phenyl]prop-2-en-1-one] yielded an IC50 of 1.76 µM.
Compound O=C(/C=C/c1ccc(F)c(C(F)(F)F)c1)N1CCN2C[C@H](Oc3cnc(C4CC4)cn3)C[C@H]2C1 [Example 154, (2E)-1-[(7R,8aS)-7-[(5-cyclopropylpyrazin-2-yl)oxy]hexahydropyrrolo[1,2-a]pyrazin-2(1H)-yl]-3-[4-fluoro-3-(trifluoromethyl)phenyl]prop-2-en-1-one] has an IC50 of 0.75 µM.
In the case of O=C(COc1cccc(C(F)(F)F)c1)N1CCN2C[C@H](Oc3cnc(C4CC4)cn3)C[C@H]2C1 [Example 155, 1-[(7R,8aS)-7-[(5-cyclopropylpyrazin-2-yl)oxy]hexahydropyrrolo[1,2-a]-pyrazin-2(1H)-yl]-2-[3-(trifluoromethyl)phenoxy]ethanone], the IC50 is reported as 0.37 µM.
Compound CC(Oc1cccc(C(F)(F)F)c1)C(=O)N1CCN2C[C@H](Oc3cnc(C4CC4)cn3)C[C@H]2C1 (stereo partly drawn) [Example 156, 1-[(7R,8aS)-7-[(5-cyclopropylpyrazin-2-yl)oxy]hexahydropyrrolo[1,2-a]-pyrazin-2(1H)-yl]-2-[3-(trifluoromethyl)phenoxy]propan-1-one] has an IC50 of 0.33 µM.
Compound CC(C)(Oc1cccc(C(F)(F)F)c1)C(=O)N1CCN2C[C@H](Oc3cnc(C4CC4)cn3)C[C@H]2C1 [Example 157, 1-[(7R,8aS)-7-[(5-cyclopropylpyrazin-2-yl)oxy]hexahydropyrrolo[1,2-a]-pyrazin-2(1H)-yl]-2-methyl-2-[3-(trifluoromethyl)phenoxy]propan-1-one] has an IC50 of 0.5 µM.
O=C(C(O)c1ccc(C(F)(F)F)cc1)N1CCN2C[C@H](Oc3cnc(C4CC4)cn3)C[C@H]2C1 (stereo partly drawn) [Example 158, 1-[(7R,8aS)-7-[(5-cyclopropylpyrazin-2-yl)oxy]hexahydropyrrolo[1,2-a]-pyrazin-2(1H)-yl]-2-hydroxy-2-[4-(trifluoromethyl)phenyl]ethanone] was tested, and the IC50 was 2.22 µM.
O=C([C@H](O)c1cccc(C(F)(F)F)c1)N1CCN2C[C@H](Oc3cnc(C4CC4)cn3)C[C@H]2C1 [Example 159, (2R)-1-[(7R,8aS)-7-[(5-cyclopropylpyrazin-2-yl)oxy]hexahydropyrrolo[1,2-a]pyrazin-2(1H)-yl]-2-hydroxy-2-[3-(trifluoromethyl)phenyl]ethanone] showed an IC50 of 3.51 µM.
O=C([C@@H](O)c1cccc(C(F)(F)F)c1)N1CCN2C[C@H](Oc3cnc(C4CC4)cn3)C[C@H]2C1 [Example 160, (2S)-1-[(7R,8aS)-7-[(5-cyclopropylpyrazin-2-yl)oxy]hexahydropyrrolo[1,2-a]pyrazin-2(1H)-yl]-2-hydroxy-2-[3-(trifluoromethyl)phenyl]ethanone] gave an IC50 of 1.52 µM.
Work on CC(C)c1cnc(O[C@@H]2C[C@H]3CN(C(=O)Cc4cccc(C(F)(F)F)c4)CCN3C2)cn1 [Example 161, 1-[(7R,8aS)-7-[(5-isopropylpyrazin-2-yl)oxy]hexahydropyrrolo[1,2-a]-pyrazin-2(1H)-yl]-2-[3-(trifluoromethyl)phenyl]ethanone] yielded an IC50 of 1.31 µM.
COC(C(=O)N1CCN2C[C@H](Oc3cnc(C4CC4)cn3)C[C@H]2C1)c1cccc(C(F)(F)F)c1 (stereo partly drawn) [Example 162, 1-[(7R,8aS)-7-[(5-cyclopropylpyrazin-2-yl)oxy]hexahydropyrrolo[1,2-a]-pyrazin-2(1H)-yl]-2-methoxy-2-[3-(trifluoromethyl)phenyl]ethanone] showed an IC50 of 1.11 µM.
With O=C1[C@@H]2C[C@@H](Oc3cnc(C4CC4)cn3)CN2CCN1Cc1cccc(C(F)(F)F)c1 [Example 163, (7R,8aS)-7-[(5-cyclopropylpyrazin-2-yl)oxy]-2-[3-(trifluoromethyl)benzyl]-hexahydropyrrolo[1,2-a]pyrazin-1(2H)-one] the IC50 was 4.88 µM.
COC(C(=O)N1CCN2C[C@H](Oc3cnc(C4CC4)cn3)C[C@H]2C1)(c1ccccc1)C(F)(F)F (stereo partly drawn) [Example 165, 1-[(7R,8aS)-7-[(5-cyclopropylpyrazin-2-yl)oxy]hexahydropyrrolo[1,2-a]-pyrazin-2(1H)-yl]-3,3,3-trifluoro-2-methoxy-2-phenylpropan-1-one] showed an IC50 of 2.69 µM.
For CO[C@H](C(=O)N1CCN2C[C@H](Oc3cnc(C4CC4)cn3)C[C@H]2C1)c1cccc(C(F)(F)F)c1 [Example 168, (2S)-1-[(7R,8aS)-7-[(5-cyclopropylpyrazin-2-yl)oxy]hexahydropyrrolo[1,2-a]pyrazin-2(1H)-yl]-2-methoxy-2-[3-(trifluoromethyl)phenyl]ethanone], the IC50 was 1.9 µM.
With CO[C@@H](C(=O)N1CCN2C[C@H](Oc3cnc(C4CC4)cn3)C[C@H]2C1)c1cccc(C(F)(F)F)c1 [Example 169, (2R)-1-[(7R,8aS)-7-[(5-cyclopropylpyrazin-2-yl)oxy]hexahydropyrrolo[1,2-a]pyrazin-2(1H)-yl]-2-methoxy-2-[3-(trifluoromethyl)phenyl]ethanone] the IC50 was 2.04 µM.
With O=C(c1ccc(C(F)(F)F)cc1)N1CC(=O)N2C[C@H](Oc3cnc(C4CC4)cn3)C[C@H]2C1 [Example 174, (7R,8aS)-7-[(5-cyclopropylpyrazin-2-yl)oxy]-2-[4-(trifluoromethyl)-benzoyl]hexahydropyrrolo[1,2-a]pyrazin-4(1H)-one] the IC50 was 5.42 µM.

Source: patent US8669255B2, “Substituted octahydropyrrolo[1,2-a]pyrazines as calcium channel blockers” (AbbVie Inc., priority 2011, dated 2014)
